From the supplement of paper PMC3334620
Over roughly 33,000 sequences, “E-score (-0.5 to 0.5)” has its median near -0.054; the highest 2% begin near 0.39. Some of the results follow.

molecular target: Ylr278c (UniProt Q05854); experiment: PBM E-score (8-mer binding enrichment) (E-score (-0.5 to 0.5)); higher = stronger / more preferred TF binding; most listed sequences are background and not binding sites; details: protein concentration: 200 nM; construct: GST-DNA-binding domain
Method in brief: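 Yeast transcription factors, full-length or as DNA-binding domains, were expressed with a GST tag using PURExpress in vitro transcription/translation. At about 100-200 nM they were applied to universal all-10-mer Agilent arrays, double-stranded by primer extension on fresh or once-stripped slides. Fluorescent anti-GST detected bound protein, and masliner normalised the scans. E-scores for ungapped eight-base words, pooled with reverse complements, came from the Universal PBM Analysis Suite.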

Sequence	PBM E-score
CGAAAACA	0.139
GTTACCTA	-0.229
AGATCCGA	0.344
CGAGAGCA	0.0376
ATTTCCGC	0.397
AATTTCCC	0.114
AGACCGGA	0.335
ATCCCCTA	-0.0766
AACCGGTC	0.198
CTTGAAAA	-0.0913
CGCGCCCG	0.269
ACGCTCAA	-0.0956
AGCACAAG	-0.0575
CGCAAATC	0.133
AAGCCTGT	-0.105
CGACTGTC	-0.192
CGCCGCAC	0.222
CTGCCACA	-0.191
CTCTAAAC	-0.125
GCGAGCAA	0.0132
GGATGATA	0.00526
AACTCTAA	0.0999
CTGGCCAG	-0.218
CGTTGAAA	-0.0818
ACGAGATG	-0.13

Sequence	PBM E-score
ATGCGATG	-0.0186
GCGTAAAA	0.0422
GCTCTCTA	-0.266
TCACCAAA	-0.106
CTTTTAGC	-0.199
CATTAGCC	0.0103
AGCCGACC	0.0564
CCACTGAA	0.0461
CACCCACA	-0.116
CCACGGGA	0.0757
GATTATCC	0.212
AGGTACAC	-0.0394
TAGACCCA	-0.168
AGGAAGGG	-0.226
CTCTAGCA	-0.23
AATCTTGG	-0.158
CGGCCGTA	0.225
ACTGTAGC	-0.231
AAAAAAAA	0.0783
CCGCCAGG	0.102
CAGTGAGC	-0.153
TCCTCCCA	0.0879
AGGGGTTG	-0.164
ATGGTACA	-0.169
TGCGACAA	-0.119

Sequence	PBM E-score
GAAGAAGC	0.117
ACCCGAAC	0.197
CGCCCCCA	-0.186
GCTACTAA	-0.0294
ATAGCATA	-0.122
GCCGGGGA	0.338
GGAGCCAA	0.0617
AACGCGGA	0.397
ATTAGGGG	-0.0907
AAGCCACT	-0.228
ACCCCTCC	-0.101
ACGAGACT	-0.187
CTAGCAAA	-0.00039
AAGGAGAT	0.0883
ACCCTACA	-0.192
CCGCAGGC	0.203
CATTCGAC	-0.0234
AAGCAGAA	-0.0239
AATTGGGC	-0.116
CCTAGTGC	-0.173
AGACAGTA	-0.228
AGGGGTAG	-0.0381
GATTTTCA	0.0485
GAAAGCTA	0.0324
AACGTCTG	-0.123

Sequence	PBM E-score
AATATCAT	-0.105
ACTCAACT	0.0546
TCCACAAA	0.07
AATCCTAA	-0.0809
ACGATTTA	0.0466
GGAATCCA	0.139
GGTAACGA	-0.057
ACGTATGA	-0.145
CTACGGCC	0.123
CGTTCCCC	0.0912
TGAATGCA	-0.132
CGGGGCAC	0.173
CCGGAATC	0.435
AGTTCTCA	-0.0197
TATACCAA	-0.101
CGGCGAAG	0.287
GTATTGAA	0.0438
AAAAAATA	0.0872
TCTGGCAA	-0.0644
GCTATCAA	-0.0652
AGGTTATG	-0.0223
CGCGCGTA	0.203
AACAAATC	0.00828
GTCTACCA	-0.199
TGTCTCAA	-0.192

Sequence	PBM E-score
AGCTCGAT	-0.0573
GATCTGGA	-0.149
GAAGCTAA	-0.0877
GCTACTCC	0.289
CTGTAAAA	-0.0499
ACAGTATA	-0.181
GGCATCTA	-0.0448
GGACGTCA	0.0459
ATTCTTAG	-0.27
ACAAACTA	-0.0626
ACACCCTG	-0.211
AATTCTCG	-0.052
CCCCCGTC	0.0647
GGCATGAA	0.0634
AGAACGCC	0.128
AATGTAAT	0.113
CCGCGTCC	0.262
GATTAACC	0.00182
AATGCAAA	-0.0473
CGGTCCCA	0.131
CCGGCGAA	0.404
AATCCGGG	0.417
ACCCTGTC	-0.183
AGTAAGTA	-0.0768
CTCTCCCC	0.00292

Sequence	PBM E-score
CGTCACGA	-0.0839
CGGCTACA	-0.0425
GCTTTTCA	-0.0244
AGGCACTC	-0.195
AATAGATA	-0.126
GTCACGTA	-0.319
CTCGCGAG	0.00091
AATGTTGT	-0.0992
GGAGCCAC	0.0167
ACTATTAT	-0.0407
ACTGGTTC	-0.00699
CCGCTGCG	0.248
ATGGTCTC	-0.0475
ATCGAGCA	0.0192
CGCAGGCA	0.0235
ATACGTAA	-0.213
CCAACCAG	-0.17
CAAATGGG	-0.154
CACGCCGA	0.211
CCGACACG	0.246
ATGGGTGA	-0.0653
CTCTCTAC	-0.25
GGGCACCA	-0.0453
CGGTCGCA	-0.0242
GTTCCACA	-0.0269

Sequence	PBM E-score
CATCTAGA	-0.196
TGTTAACA	-0.151
ACTTTTAG	-0.0685
GCTAGGAC	0.021
TCCCTCAA	-0.106
ACGTGTCG	-0.149
GATTCGGA	0.363
ATGGTCGC	-0.0551
CATTGGCC	-0.204
GGATATAA	0.127
CCTACCCA	-0.214
ATACTCAG	0.00853
CCATGATA	-0.171
AGAGACCT	-0.344
ACATAAGC	-0.121
GTGCACCA	-0.119
GCCTCGGA	0.352
ACACACAT	-0.132
GACTCTCA	-0.0842
CAGTTGAG	-0.323
GCTGCGAA	-0.0819
CGACACAA	-0.181
